The other results are listed elsewhere or left out. Shown are side measurements of this screen, not its main read-out; they come without a call.

This note sets out measurements from PubChem BioAssay AID1745853 (National Center for Advancing Translational Sciences (NCATS), 2022).

Common to all, as to test: Primary Screen for Target Class Profiling of Small Molecule Inhibitors of Methyltransferases
Assay [1] has as its target Glycine N-methyltransferase (Homo sapiens) (UniProt Q14749). To be noted: purified enzyme, MTase-Glo SAH luminescence; measured here: GNMT inhibition; at 40 µM; stronger effect = lower value. In outline: (§1)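 Each enzyme was assayed with SAM and its substrate. SAH formation detected by MTase-Glo luminescence; single-point 40 uM screen[…].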
The target of assay [2] is Guanidinoacetate N-methyltransferase (Homo sapiens) (UniProt Q14353). The note with it: purified enzyme, MTase-Glo SAH luminescence; measured here: GAMT inhibition; at 40 µM; stronger effect = lower value. The method in brief: as §1
For assay [3], the target named is Histamine N-methyltransferase (Homo sapiens) (UniProt P50135). To be noted: purified enzyme, MTase-Glo SAH luminescence; measured here: HNMT inhibition; at 40 µM; stronger effect = lower value. The method in brief: as §1
In assay [4] the target is Nicotinamide N-methyltransferase (Homo sapiens) (UniProt P40261). The note with it: purified enzyme, MTase-Glo SAH luminescence; measured here: NNMT inhibition; at 40 µM; stronger effect = lower value. In outline:
as §1

The target in assay [5] is Phenylethanolamine N-methyltransferase (Homo sapiens) (UniProt P11086). The note with it: purified enzyme, MTase-Glo SAH luminescence; measured here: PNMT inhibition; at 40 µM; stronger effect = lower value. The method in brief:
as §1
% is scaled to controls: 0 for no effect and ±100 for the full control effect.

As for `CS(=O)(=O)c1ccc(OC[C@H]2C[C@@H](NC(=O)c3ccccc3)[C@H](O)[C@@H]2O)cc1`, the activity change, negative = inhibition is -1.54% in assay [1]; -3.74% in assay [2]; -2.07% in assay [3]; -7.28% in assay [4]; 8.1% in assay [5].

On to `CC1CCCCN1CCCNC(=O)Cn1ccc2cc(S(=O)(=O)N3CCCCC3)ccc21` (stereo not given), for which the activity change, negative = inhibition in assay [1] was 4.18%; in assay [2], 0.083%; in assay [3], -44.7%; in assay [4], 1.45%; in assay [5] it was -1.24%.

As to `CCCNC(=O)c1ncn2c1C(=O)N(C1CC1)C(C)(C(=O)NCc1cccc(C)c1)C2` (stereo not given), the activity change, negative = inhibition in assay [1] came to 0.26%; in assay [2], 0%; in assay [3], 3.33%; in assay [4], 0.475%; in assay [5] it was 1.53%.

On to `O=C(c1ccccc1F)N1CCn2ncc(C(=O)N3CCOCC3)c2C1`, for which the activity change, negative = inhibition was -0.065% in assay [1]; 0.775% in assay [2]; 0.947% in assay [3]; 0.683% in assay [4]; 1.51% in assay [5].

Take `CCCC1c2ccc(C)n2CCN1C(=O)Nc1cc(C)ccc1OC` (stereo not given): the activity change, negative = inhibition is -3.09% in assay [1]; 3.49% in assay [2]; -9.91% in assay [3]; 0.619% in assay [4]; -6.37% in assay [5].

As to `O=C(Cn1nc2n(Cc3ccc(F)cc3)c(=O)c3ccccc3n2c1=O)Nc1ccc(Cl)cc1`, the activity change, negative = inhibition in assay [1] came out at 4.7%; in assay [2] it was 0%; in assay [3], 11%; in assay [4] it was 3.15%; in assay [5], 3.15%.

As to `CCOc1ccccc1CN1C(=O)c2ccc(-c3ccccc3)n2CC1(C)C(=O)NC1CCCCC1` (stereo not given), the activity change, negative = inhibition in assay [1] was found to be 3.71%; in assay [2] it was 0.738%; in assay [3] it was 1.61%; in assay [4], 2.42%; in assay [5], 0.622%.

As to `CCN(CC)CCOCCOC(=O)C1(c2ccccc2)CCCC1`, the activity change, negative = inhibition in assay [1] is -8.31%; in assay [2], 0.731%; in assay [3], -1.1%; in assay [4], -9.63%; in assay [5], 2.82%.

On to `COc1ccc2cc3n(c2c1)CC(C)(C(=O)NC1CCCCC1)N(Cc1ccccc1F)C3=O` (stereo not given), for which the activity change, negative = inhibition in assay [1] was 2.71%; in assay [2], 0.498%; in assay [3], 7.32%; in assay [4], 1.06%; in assay [5], 0.855%.

Take `O=C(NCCN1CCCCC1)C1CN(S(=O)(=O)c2cccnc2)CC12CCCCC2` (stereo not given): the activity change, negative = inhibition is -0.47% in assay [1]; -1.6% in assay [2]; -26.4% in assay [3]; -18.9% in assay [4]; -2.97% in assay [5].

Consider `CCCSCCCN1C(=O)c2nc3ccccc3n2CC1(C)C(=O)NC1CCCCCC1` (stereo not given), for which the activity change, negative = inhibition in assay [1] worked out at 2.27%; in assay [2] it was 2.25%; in assay [3], 5.75%; in assay [4], 6.19%; in assay [5] it was 0.181%.

In the case of `CC(=O)O[C@@H]1[C@@H](O)[C@H](O[C@@H]2[C@@H](O)[C@@H](O)[C@H](O[C@H]3[C@H](O[C@H]4[C@H](O[C@H]5CC[C@@]6(C)C(CC[C@]7(C)C6CC=C6[C@@H]8CC(C)(C)CC[C@]8(C(=O)O)CC[C@]67C)[C@]5(C)CO)O[C@H](CO)[C@@H](O)[C@@H]4O)OC[C@@H](O)[C@@H]3O)O[C@H]2C)OC[C@H]1O` (stereo not given in full), the activity change, negative = inhibition in assay [1] was 2.98%; in assay [2], -3.04%; in assay [3], 11%; in assay [4] it was -17.3%; in assay [5], -5.74%.

With `C=CCNC(=O)C[C@@H]1CCN(C(=O)c2cccnc2)C[C@@H]1CC`, the activity change, negative = inhibition is -5.62% in assay [1]; -6.34% in assay [2]; -10.9% in assay [3]; -6.22% in assay [4]; 0.111% in assay [5].

Consider `CN1CCCCC(CC(=O)NCc2cc(F)ccc2F)C1=O` (stereo not given), for which the activity change, negative = inhibition in assay [1] was -3.61%; in assay [2], -8.33%; in assay [3] it was -5.13%; in assay [4], -9.74%; in assay [5], -8.96%.

Consider `Cc1cc(C(C)(C)C)cc(C)c1CC1=NCCN1`, for which the activity change, negative = inhibition is -5.87% in assay [1]; 0.645% in assay [2]; -7.2% in assay [3]; -7.7% in assay [4]; 4.2% in assay [5].

Regarding `CCc1nnc(CN2CCC(C(=O)Nc3cccc(-c4ccco4)c3)CC2)o1`, the activity change, negative = inhibition in assay [1] is -9.81%; in assay [2], -9.61%; in assay [3], -4.03%; in assay [4], -8.21%; in assay [5] it was -8.23%.

Turning to `Cc1ccc(S(=O)(=O)Nc2nc3ccc(C)cc3nc2Nc2ccc3c(c2)n(C)c(=O)n3C)cc1`, the activity change, negative = inhibition in assay [1] was 15.2%; in assay [2] it was 0.481%; in assay [3], 1.88%; in assay [4] it was 3.48%; in assay [5], -6.14%.

Take `Cc1ccsc1C(=O)N1CCc2nnc([C@@H]3C[C@@H](O)CN3C(C)C)n2CC1`: the activity change, negative = inhibition in assay [1] was -5.99%; in assay [2], -7.23%; in assay [3] it was -4.3%; in assay [4], -12.3%; in assay [5] it was -7.6%.

For the molecule `CC1(C)CC(NC(=O)C(=O)Nc2ccc(Cl)cc2)CC(C)(C)N1`, the activity change, negative = inhibition was -0.994% in assay [1]; 1.12% in assay [2]; 7.82% in assay [3]; -11.8% in assay [4]; 1.88% in assay [5].

Take `COc1cc(NC(=O)c2ccccn2)ccc1Cl`: the activity change, negative = inhibition in assay [1] is -1.54%; in assay [2], 3.9%; in assay [3] it was 8.88%; in assay [4] it was -14.6%; in assay [5], 0.111%.

Regarding `O=C(Nc1cnc(Cl)nc1)c1ccc(F)c(F)c1`, the activity change, negative = inhibition in assay [1] was -8.12%; in assay [2] it was -11.1%; in assay [3], 5.55%; in assay [4], -19.9%; in assay [5], -3.24%.

As for `COc1ccc(N2C(=O)c3cc4ccccc4n3CC2(C)C(=O)NC2CCCC2)c(OC)c1` (stereo not given), the activity change, negative = inhibition in assay [1] is -1.32%; in assay [2], 0%; in assay [3], 6.27%; in assay [4] it was -6.82%; in assay [5], 0.007%.

`O=c1[nH]ccc2c(O)cccc12`: the activity change, negative = inhibition in assay [1] is 4.41%; in assay [2], 9.3%; in assay [3], 10.3%; in assay [4], -6.37%; in assay [5], 2.74%.

`CCc1cccc(NC(=O)Cn2nc3n(C4CC4)c(=O)c4ccc(C(=O)NC(C)C)cc4n3c2=O)c1`: the activity change, negative = inhibition in assay [1] is 1.04%; in assay [2], 1.38%; in assay [3] it was 2.39%; in assay [4] it was -9.33%; in assay [5], -1.39%.

Consider `O=C(C(=O)N1CCc2[nH]nc(-c3ccccc3F)c2C1)c1ccco1`, for which the activity change, negative = inhibition in assay [1] is -6.46%; in assay [2] it was -0.91%; in assay [3] it was 0.994%; in assay [4], -10.9%; in assay [5], -2.78%.

With `CC(C)c1noc([C@H]2C[C@@H]3C(=O)NCCCCCCN(C(=O)Cc4ccccc4)[C@@H]3C2)n1`, the activity change, negative = inhibition in assay [1] is -2.4%; in assay [2] it was -10.4%; in assay [3], -5.55%; in assay [4] it was -12.1%; in assay [5] it was -11.8%.

Consider `COc1ccc(CNC(=O)C(C)n2ccc3cc(S(=O)(=O)N4CCCC4)ccc32)c(OC)c1` (stereo not given), for which the activity change, negative = inhibition in assay [1] is -1.58%; in assay [2], -2.22%; in assay [3], -1.61%; in assay [4], -22.7%; in assay [5] it was -5.19%.

Turning to `CC1=CC2/C=C(\C)CCC3OC(C)(C)OC3CCC(=O)C23C(=O)NC(CC(C)C)C3C1C` (stereo not given), the activity change, negative = inhibition in assay [1] is 0%; in assay [2], 1.91%; in assay [3], -2.53%; in assay [4], -13.8%; in assay [5], -0.303%.
